Results taken from the supplement of paper PMC12217912.
The list shows a part of the results. The full chains were built here from the parent and the listed change. Inactive controls read about 0.05.

B1: TEV protease; numbered along this chain (parent)
chain: MGESLFKGPRDYNPISSSICHLTNESDGHTTSLYGIGFGPFIITNKHLFRRNNGTLVVQSLHGVFKVKDTTTLQQHLVDGRDMIIIRMPKDFPPFPQKLKFREPQREERICLVTTNFQTKSMSSMVSDTSCTFPSGDGIFWKHWIQTKDGQCGSPLVSTRDGFIVGIHSASNFTNTNNYFTSVPKNFMELLTNQEAQQWVSGWRLNADSVLWGGHKVFMVKPEEPFQPVKEATQL

Variants of: B1
Experiment: raw area under fraction-flipped curve 0-4 h after induction (AUC4h, not background-subtracted), DNA-recorder readout of cleavage of the substrate (dimensionless); higher = more cleavage of the substrate by the protease variant
Conditions: temperature: 34 °C; time window: 0-4 h after rhamnose induction
Description: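 In vivo DNA recorder in E. coli TOP10(DE3) ΔrhaA at 34 °C. Each TEVp single-site mutant (parent TEVp 0) is paired with a single-site variant of the 7-mer TEVs (canonical ENLYFQ|S). The substrate sits between flexible linkers in a Bxb1-sfGFP-TEVs-SsrA fusion, so cleavage stabilises Bxb1 and speeds flipping of a recombination array, read by NGS. The value is the raw area under the fraction-flipped curve over 0-4 h after rhamnose induction (AUC4h), with ≥20 reads per time point. It is not background-subtracted; inactive controls average about 0.047.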
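Also: Bxb1 expression induced with 0.2% (w/v) L-rhamnose at OD600 near 0.5, cultures sampled hourly, flipped fraction per protease–substrate barcode pair counted by paired-end Illumina sequencing.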

Variant	area with substrate EKLYFQS	area with substrate EVLYFQS	area with substrate EGLYFQS	area with substrate EHLYFQS	area with substrate EILYFQS	area with substrate ERLYFQS	area with substrate EWLYFQS	area with substrate EMLYFQS	area with substrate EPLYFQS	area with substrate ESLYFQS	area with substrate EYLYFQS	area with substrate EFLYFQS	area with substrate ELLYFQS	area with substrate ETLYFQS	area with substrate EELYFQS	area with substrate EQLYFQS
G35P	0.0281	0.0313														
N116K			0.0931	0.119	0.106	0.128	0.0844									
F180P		0.0573			0.0363			0.0619	0.0505	0.0528	0.0445					
Q194E		0.102				0.0744				0.108		0.0793	0.121	0.122		
Q59Y			0.0866			0.122			0.111	0.11	0.102	0.133	0.0951		0.111	
Q74W	0.0806	0.0756	0.0905	0.0978	0.102		0.0875			0.0834	0.113	0.112	0.0884	0.088	0.0899	0.0964
N193I	0.0879	0.106	0.0787	0.0816	0.0954	0.0791		0.0968	0.106		0.0783	0.102	0.0858		0.102	
H47S		0.0502			0.0575		0.0595			0.0609	0.046		0.067		0.0595	0.0479
D69C	0.082	0.0776	0.0662	0.135	0.0848		0.0943	0.127	0.101	0.086	0.0858				0.14	0.0869
D69I					0.0717	0.0602	0.0817		0.0703					0.0922	0.0995	0.0639
G166P	0.0585	0.0494			0.0227		0.0458		0.0353	0.0471		0.0464			0.0551	0.0491
